{
  "source": "paper PMC10726135",
  "note": "The other results are listed elsewhere or left out. At the low end of the ranking the order means little. Measured with an extract: partners may take part in the binding.",
  "data": [
    {"target": "T1, HNF4alpha2 (COS-7 nuclear extract) (UniProt P41235)", "T1 sequence": "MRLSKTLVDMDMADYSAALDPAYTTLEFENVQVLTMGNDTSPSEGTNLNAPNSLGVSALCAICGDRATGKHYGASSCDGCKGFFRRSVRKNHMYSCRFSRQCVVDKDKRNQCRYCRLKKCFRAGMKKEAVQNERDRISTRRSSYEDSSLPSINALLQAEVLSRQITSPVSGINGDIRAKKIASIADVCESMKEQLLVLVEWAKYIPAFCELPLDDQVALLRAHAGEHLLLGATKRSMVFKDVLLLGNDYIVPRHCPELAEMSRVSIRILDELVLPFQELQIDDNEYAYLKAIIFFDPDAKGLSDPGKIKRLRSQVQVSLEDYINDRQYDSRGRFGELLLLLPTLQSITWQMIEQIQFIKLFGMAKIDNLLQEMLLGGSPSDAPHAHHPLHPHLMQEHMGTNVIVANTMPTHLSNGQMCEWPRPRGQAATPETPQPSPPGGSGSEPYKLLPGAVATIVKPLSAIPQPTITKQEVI", "experiment": "protein-binding microarray", "conditions": "COS-7 nuclear extract on double-stranded Agilent 4x180k PBM; binding buffer, salt, pH and temperature not given; high values mean tight binding; double strand, one strand shown; sequences stand for … in …GCCTAGGGAGATTAGAGTATCGGTCGA", "values": [
      {"sequence": "CTGGTGCTGCTACTTTAGCTGCCAGAGGTT", "binding signal (log2 normalized intensity)": -0.423},
      {"sequence": "CCCAGACGCAGGCCTGCAAGCTCCTGGTTG", "binding signal (log2 normalized intensity)": -1.08},
      {"sequence": "AACGACCCTTGCTCTGTTTTCTGACGCAAC", "binding signal (log2 normalized intensity)": 0.962},
      {"sequence": "GGCCCAAGATAAAGGGACAGGGGTCATCAG", "binding signal (log2 normalized intensity)": 2.57},
      {"sequence": "TTAGGCTGATGCCCTTTGGATTTAGGCAGT", "binding signal (log2 normalized intensity)": 2.87},
      {"sequence": "GCCTGAACAAACATGAGGGACTGGGAAGAG", "binding signal (log2 normalized intensity)": -1.13},
      {"sequence": "GAACGGGTCAAGAGGGACAAAATGCCCAGG", "binding signal (log2 normalized intensity)": -1.1},
      {"sequence": "TTTGAACATTTTAACACAGGACAAATCAAG", "binding signal (log2 normalized intensity)": 0.935},
      {"sequence": "GAGACTGGAGAGACCAAAGGGTGAAATAGG", "binding signal (log2 normalized intensity)": -0.64},
      {"sequence": "TGCTAGTAAGGGGAGGAGCTGAAACAGTCT", "binding signal (log2 normalized intensity)": -1.17},
      {"sequence": "ACCCCACGGAGCTGCCTCACATGAGCTAGA", "binding signal (log2 normalized intensity)": -0.873},
      {"sequence": "TTTAAAGTATCCCATCCATTTCCCATCCCC", "binding signal (log2 normalized intensity)": 3.39},
      {"sequence": "AGCATTGTGCTGAAAAGACTTCACAATCAA", "binding signal (log2 normalized intensity)": -1.14},
      {"sequence": "CAGTGTTTGCTTTAGATTTTCTCACTCTAA", "binding signal (log2 normalized intensity)": 0.82},
      {"sequence": "GAAAGGGCAGAATCTAGGATAACTCTAGTG", "binding signal (log2 normalized intensity)": -1.22},
      {"sequence": "TTGCAGGCTGATAGGCAGAAGGGACTAGCC", "binding signal (log2 normalized intensity)": -1.14},
      {"sequence": "TGGACTCTGACCCATTCCTTCTCACCGGGT", "binding signal (log2 normalized intensity)": 3.88},
      {"sequence": "GCAAAGCCAATCTGCTTAAAGGCAAAGTCC", "binding signal (log2 normalized intensity)": 3.57},
      {"sequence": "CCTCCCTCCATGCTGTAGATTGTGGAATGT", "binding signal (log2 normalized intensity)": 1.81},
      {"sequence": "CGCATCTGAAGATAAGAGAAGTTGCTCTTT", "binding signal (log2 normalized intensity)": 2.14},
      {"sequence": "AATCCTCAAAAATGCTTTACAAGGTGGTTG", "binding signal (log2 normalized intensity)": 1.23},
      {"sequence": "AGACTTTGACCTCTGCTAGGTTTGGGTAAG", "binding signal (log2 normalized intensity)": 5.62},
      {"sequence": "AGTATCCGCCTTCACTCCCCTGACAGCATG", "binding signal (log2 normalized intensity)": 2.01},
      {"sequence": "TCTCACTGGATGTGTACCTCATCTTCTTTC", "binding signal (log2 normalized intensity)": 0.929},
      {"sequence": "GGTTGGGGGTGGCTAATTACATCCAGAGTG", "binding signal (log2 normalized intensity)": -0.0915},
      {"sequence": "AGGTTATTCTTTCCCCTCCCTTCCACCTTT", "binding signal (log2 normalized intensity)": 3.94},
      {"sequence": "CACACATTAGCTTCCCGGCTGTCACAGCCT", "binding signal (log2 normalized intensity)": -1.13},
      {"sequence": "CTGAATGACCACATGCCCTCAGTACAGGGC", "binding signal (log2 normalized intensity)": -0.435},
      {"sequence": "TTTGCCCTGTCAGTCTCTCAATGATTGACA", "binding signal (log2 normalized intensity)": -1.14},
      {"sequence": "CCTGATTGGTCATACTTGACCCACAGCTAG", "binding signal (log2 normalized intensity)": 1.81},
      {"sequence": "ATGCAAACACCTACATTCAAATCCTTGCTC", "binding signal (log2 normalized intensity)": -1.07},
      {"sequence": "CCCGCTCCACTCCGGGCGATCCGGGCTCCG", "binding signal (log2 normalized intensity)": -1.09},
      {"sequence": "AGGAAAGTCTCCCTCCCTTTGATCCCACAC", "binding signal (log2 normalized intensity)": 3.06},
      {"sequence": "TGCGCAAGTCCCAGAAGTTCTAAGGTGGGA", "binding signal (log2 normalized intensity)": 0.449},
      {"sequence": "GGTGATGAGTTCTTATCTAGGTAAGTATAG", "binding signal (log2 normalized intensity)": 1.65},
      {"sequence": "TAAATCAGAAGAAAAAGGTAAGGAGATAAG", "binding signal (log2 normalized intensity)": -1.22},
      {"sequence": "TTGCCTTATTTGAACACAGTTCGAACAGTT", "binding signal (log2 normalized intensity)": 0.233},
      {"sequence": "ATTTTGGAATGTCGCATAGCTCCTGGCTGG", "binding signal (log2 normalized intensity)": -1.06},
      {"sequence": "GTTGCTGAAGGGCAGGGTTGGCTGTGGCAA", "binding signal (log2 normalized intensity)": 0.304},
      {"sequence": "GATATTGGCCAAAGGGCACAAGAGGAATTG", "binding signal (log2 normalized intensity)": 1.79},
      {"sequence": "CAAGAATCTTGATTACTATAGGGCAAATGG", "binding signal (log2 normalized intensity)": 1.4},
      {"sequence": "AGGTTTGATTTCAGCATGTTTAAATGCTGA", "binding signal (log2 normalized intensity)": 1.28},
      {"sequence": "TTGCACTGCAAAGAAGTCAAACTTTGGACC", "binding signal (log2 normalized intensity)": 6.36},
      {"sequence": "TTCTGCTGCATTCTATTGGTCAAAGTAAAT", "binding signal (log2 normalized intensity)": 0.511},
      {"sequence": "AGGAATTTTAAAAGTATACTATATTTGTCC", "binding signal (log2 normalized intensity)": -0.378},
      {"sequence": "ATGTTTGCCGACCTCCTGACTAAAGTTCAT", "binding signal (log2 normalized intensity)": 2.65},
      {"sequence": "ATCAGTATCCCAGTTCTGGATACTGATTAC", "binding signal (log2 normalized intensity)": -1.02},
      {"sequence": "AGGGATCTTTGCACTTGATGTTCCCCCTCC", "binding signal (log2 normalized intensity)": 4.32},
      {"sequence": "GGGCAAGAAAGGGGTCAGCAAAAATAGCCA", "binding signal (log2 normalized intensity)": -1.17},
      {"sequence": "CCTTGCCTTAAGAGCAGTCTGCTCAAGTCT", "binding signal (log2 normalized intensity)": -1.05},
      {"sequence": "TGGCACACAGAGGACGTCAGGCAGAGAGGG", "binding signal (log2 normalized intensity)": -1.25},
      {"sequence": "CTGATGGCTGCTTCACACAAACATCACCTA", "binding signal (log2 normalized intensity)": -0.966},
      {"sequence": "CGGGTCACGTGCCGCTGCGGGTCACGTGTC", "binding signal (log2 normalized intensity)": 1.44},
      {"sequence": "AGCATCCCTCGGGCCGGGAAACGCCCTCGG", "binding signal (log2 normalized intensity)": 0.417},
      {"sequence": "GTAAGTATGCTCACTGACCTCTGCCCTACT", "binding signal (log2 normalized intensity)": 4.35},
      {"sequence": "ACTACCCCTGCCTAAACAAGGCAGACTTGG", "binding signal (log2 normalized intensity)": -0.64},
      {"sequence": "AACTTCCTCCTCCTTGGCTCTCCCCACTTA", "binding signal (log2 normalized intensity)": 2.75},
      {"sequence": "CCTCCAACTATGCTAAGAATGCGAACCATT", "binding signal (log2 normalized intensity)": -1.08},
      {"sequence": "GCGCGGGGCGCCTCCCGGAGGACCCGACCG", "binding signal (log2 normalized intensity)": -1.15},
      {"sequence": "GACTTGACAAAGGTCATTCATGTGCAGGTT", "binding signal (log2 normalized intensity)": 3.04},
      {"sequence": "AAGGAATTTACTGCAGTCAGGGGTTAGGCC", "binding signal (log2 normalized intensity)": 0.068},
      {"sequence": "CCCAAATGCAAACAGCAGCCACATTCCATG", "binding signal (log2 normalized intensity)": -1.1},
      {"sequence": "AAGGTCAGCAAGCCTGGAGTTCTGATGTTC", "binding signal (log2 normalized intensity)": 0.534},
      {"sequence": "CTGGTGATCTTTGTTAGACCCTTATCAGTA", "binding signal (log2 normalized intensity)": 1.82},
      {"sequence": "AATAATCTGGCATAGGAACAAAGGTTGGTG", "binding signal (log2 normalized intensity)": 2.24},
      {"sequence": "CAGTGGAATCTACAGAATTCTCATGGAGGA", "binding signal (log2 normalized intensity)": -0.206},
      {"sequence": "ACAGTTCTGATACATTGGACAACTGTACTT", "binding signal (log2 normalized intensity)": 2.1},
      {"sequence": "TTTCTGTCCAGAGTTTAAATGACCTCTGCC", "binding signal (log2 normalized intensity)": 3.88},
      {"sequence": "CATTTTTGACCTTCAGCATCTTCAACTGTG", "binding signal (log2 normalized intensity)": 3},
      {"sequence": "GTTCAGCGCGTCTTAGCACTCACCCAATAA", "binding signal (log2 normalized intensity)": -0.875},
      {"sequence": "TATGCTGGCAGTAGGGAGGTTTGGGGTTAT", "binding signal (log2 normalized intensity)": 0.621},
      {"sequence": "CTTCTCTTGTTTGTGTAACTGTGGGTTCTA", "binding signal (log2 normalized intensity)": 1.97},
      {"sequence": "ACCATTAGGGGGCAATTTCCCTGGTCGACC", "binding signal (log2 normalized intensity)": 1.54}
    ]}
  ]
}
